For at least one compound, name, drawing or mass did not settle the structure.
Test system: tumor specific Hsp90 (NCI-N417 cell lysate)
Assay: Hsp90 binding FP competition assay
Design: species or system human
Excerpt: There are several assays that have been developed to identify novel Hsp90 inhibitors based on the interaction of small molecules with recombinant Hsp90 protein, either yeast or human. To measure a therapeutically significant state of Hsp90, an FP assay that uses human cancer cell lysates instead of recombinant protein (Du, Moulick et al. J. Biomol. Screen, 2007, 12, 915-24) was utilized. It probes the interaction of small molecules with tumor-specific Hsp90 and may therefore lead to inhibitors that are not only selective for cancer cells but also specific for a particular malignancy.
The dose-response effect of the compounds was tested in Hsp90 binding FP competition assays to obtain the IC50 of the compounds. The Hsp90 FP competition assay was performed in 384-well black plate using the small-cell lung carcinoma (SCLC) cell line NCI-N417 as a source of tumor specific Hsp90 and the Cy3B-labeled geldanamycin (GM-cy3B) as the FP ligand. The compound was dissolved in DMSO and added at several concentrations to the reaction buffer containing both GM-cy3B (5 nM) and NCI-N417 cell lysate (1 μg/well) in a final volume of 50 μL. Free GM-cy3B (5 nM) and bound GM-cy3B with NCI-N417 cell lysate (5 nM GM-cy3B and 1 μg/well of NCI-N417 cell lysate) were included as controls in each plate. After incubating at room temperature for 2 to 16 hours, the polarization values were measured and expressed as millipolarization (mP) units using Analyst HT plate reader (Molecular Devices). The competitive efficiency of the compounds were expressed as a percentage of control and calculated according to the following equation:
% of control=((mPc−mPf)/(mPb−mPf))×100
where mPc is the recorded mP from compound wells, mPf is the average recorded mP from GM-cy3B-only wells, and mPb is the average recorded mP from wells containing both GM-cy3B and NCI-N417 lysate. IC50 values were determined using a nonlinear regression analysis as implemented in Prism 4.0 (Graphpad Software).

| SMILES | IC50 (Table 1, GM-cy3B 5 nM) [nM] | IC50 (Table 2, GM-cy3B 5 nM) [nM] |
| --- | --- | --- |
| CCN(CC)C1=C(Cl)C(=O)C(=O)c2cccnc21 [Compound 6] | 1320 |  |
| N#CCCCNC1=CC(=O)C(=O)c2cccnc21 [Compound 8] | 310 |  |
| NC1=CC(=O)C(=O)c2cccnc21 [Compound 4] | 550 |  |
| N#CCCCCNC1=CC(=O)C(=O)c2cccnc21 [Compound 10] | 710 |  |
| Cc1ccc(NC2=CC(=O)C(=O)c3ccccc32)c(C(=O)O)c1 [Compound 68] |  | 580 |
| O=C1C(=O)c2cccnc2C(NCc2ccccc2)=C1Cl [Compound 3] | 140 |  |
| CN(C)C1=C(Cl)C(=O)C(=O)c2cccnc21 [Compound 5] | 960 |  |
| CC(N)CCCNC1=CC(=O)C(=O)c2cccnc21 (stereo not shown) [Compound 11] | 450 |  |
| O=C1C(=O)c2cccnc2C(NC2CC3CCC2C3)=C1Cl (stereo not shown) [Compound 2] | 110 |  |
| O=C1C=C(Nc2ccccc2)c2ncccc2C1=O [Compound 1] | 90 |  |
